Experimental data: the supplement of paper PMC12217912
Some of the results follow. Sequences were assembled here from the parent chain. Values near 0.05 are background.

B1: TEV protease; numbered along this chain (parent)
chain: MGESLFKGPRDYNPISSSICHLTNESDGHTTSLYGIGFGPFIITNKHLFRRNNGTLVVQSLHGVFKVKDTTTLQQHLVDGRDMIIIRMPKDFPPFPQKLKFREPQREERICLVTTNFQTKSMSSMVSDTSCTFPSGDGIFWKHWIQTKDGQCGSPLVSTRDGFIVGIHSASNFTNTNNYFTSVPKNFMELLTNQEAQQWVSGWRLNADSVLWGGHKVFMVKPEEPFQPVKEATQL

Variants of: B1
Test: raw area under fraction-flipped curve 0-4 h after induction (AUC4h, not background-subtracted), DNA-recorder readout of cleavage of the substrate (dimensionless); higher = more cleavage of the substrate by the protease variant
Conditions: temperature: 34 °C; time window: 0-4 h after rhamnose induction
Experimental: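 In vivo DNA recorder in E. coli TOP10(DE3) ΔrhaA at 34 °C. Each TEVp single-site mutant (parent TEVp 0) is paired with a single-site variant of the 7-mer TEVs (canonical ENLYFQ|S). The substrate sits between flexible linkers in a Bxb1-sfGFP-TEVs-SsrA fusion, so cleavage stabilises Bxb1 and speeds flipping of a recombination array, read by NGS. The value is the raw area under the fraction-flipped curve over 0-4 h after rhamnose induction (AUC4h), with ≥20 reads per time point. It is not background-subtracted; inactive controls average about 0.047.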
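Note: Bxb1 expression induced with 0.2% (w/v) L-rhamnose at OD600 near 0.5, cultures sampled hourly, flipped fraction per protease–substrate barcode pair counted by paired-end Illumina sequencing.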

Variant	area with substrate ENAYFQS	area with substrate ENCYFQS	area with substrate ENDYFQS	area with substrate ENEYFQS	area with substrate ENFYFQS	area with substrate ENGYFQS	area with substrate ENHYFQS	area with substrate ENKYFQS	area with substrate ENMYFQS	area with substrate ENNYFQS	area with substrate ENPYFQS	area with substrate ENQYFQS	area with substrate ENRYFQS	area with substrate ENSYFQS	area with substrate ENTYFQS	area with substrate ENVYFQS	area with substrate ENYYFQS	area with substrate ENIYFQS	area with substrate ENWYFQS
R51Q	0.0642	0.0778	0.0518	0.0655	0.056	0.0514	0.0708	0.0575	0.078	0.0547	0.0339	0.0503	0.0586	0.0475	0.0503	0.0823	0.0543	–	–
R51V	0.0277	0.0653	–	0.0675	0.0638	0.0676	–	–	0.052	0.0654	0.0309	0.0587	0.0584	–	0.0634	0.072	–	0.14	–
N53H	0.0655	0.0644	0.0633	0.071	–	0.079	0.0267	0.055	–	–	0.0591	0.0633	0.0689	0.0684	–	–	0.0718	–	–
N53K	0.064	–	0.0698	0.0638	–	0.0463	0.0531	0.0653	–	0.0518	0.0491	0.0651	–	0.0581	0.0517	0.0744	0.0631	0.0925	0.0668
G54P	0.0552	–	–	–	–	–	–	–	–	0.0529	–	–	–	0.0609	–	0.0831	–	–	–
T55R	0.063	0.0615	0.0517	0.061	0.0595	0.0612	0.053	0.0533	–	0.0631	–	0.0399	0.0463	0.0478	0.0755	–	0.0536	–	0.0663
T55W	0.0415	0.0576	0.0496	0.0518	–	0.0702	0.0644	0.0469	0.0739	0.0549	0.0542	0.0512	0.0477	0.0555	0.067	0.0772	0.0862	0.109	0.0043
V57F	0.0617	0.0489	0.0553	0.0479	0.0594	–	0.059	–	–	0.0599	0.0556	0.0697	0.057	0.0601	–	0.0816	0.0562	0.13	–
V57H	0.0581	–	0.0737	0.0668	–	0.0567	–	–	0.0896	–	0.0605	0.0535	0.0524	0.0604	–	0.0902	0.0553	0.102	–
V57P	0.0414	–	0.0405	0.0444	0.0469	0.036	–	0.039	–	–	–	0.0432	–	–	0.039	–	–	0.055	–
V58C	0.0605	0.0671	0.0597	0.0549	–	0.0551	0.0664	–	–	0.0544	0.0577	–	–	–	0.0533	0.0609	0.0626	0.117	–
V58I	0.0849	–	0.0576	0.0679	–	–	–	–	0.0937	–	–	–	0.0505	–	–	0.0895	–	0.0849	–
V58W	0.055	–	–	–	–	–	–	–	–	0.0155	–	–	–	–	–	0.0498	0.0363	–	–
V58Y	0.059	0.0575	0.0496	0.0504	0.0541	0.0684	–	0.053	0.0581	0.0472	0.0546	–	–	0.0493	0.0586	–	–	0.0687	0.0541
